The results in this text go back to PubChem BioAssay AID1963576 (National Center for Advancing Translational Sciences (NCATS), 2024).

Molecules are shown by their SMILES. About 60 (0.1%) of roughly 46,000 compounds were called active. Inconclusive results (about 3%) are left out. Calls follow the shape of the dose curve; as a rule, active = well fitted inhibition curve with a large enough effect; inconclusive = small, poorly fitted or top-dose-only effect; inactive = no such curve, though single readings can be large or run the other way. The list shows a part of the results.

This test is described as follows: Primary qHTS assay for Inhibitors of ovarian cancer metastasis using an organotypic tumor microenvironment (TME) model. Also: nearly all actives have a fitted effect of over 65% in size.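 As to activity change, negative = inhibition: plate controls were DMSO wells for no effect and tomatine positive control wells for full effect.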 The following applies: SKOV3ip1-GFP adhesion/invasion on 3D omental model, fluorescence; series mostly up to 45.8 µM; activity change, negative = inhibition: at the top concentration. In short, it runs like this:
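Adhesion/invasion was scored as fixed GFP-labeled SKOV3ip1 cell counts (488/509 nm), normalized to DMSO and tomatine controls. Cancer cells in serum-free medium, with four compound doses (0.36-46 umol/L), sat 2 hr at RT then 16 hr at 37 C on a 48 hr fibroblast/mesothelial/ECM culture.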
(qHTS replaces the single test concentration by a dilution series.)
Take `Cc1ccc(CNC(=O)Cn2ccn(-c3ccc(C)c(C)c3)c(=O)c2=O)cc1`: the compound was called inactive.
Consider `O=C(Cn1ncc2c(=O)oc3ccccc3c21)NCc1ccccc1Cl`, for which the “activity change, negative = inhibition” value is inactive: -4.08%.
Regarding `COc1ccc(CC(=O)NCc2ccc3c(c2)CCN3C(=O)c2ccc(C)cc2)cc1OC`, the result was inactive.
Consider `CCc1cccc(NC(=O)Cn2c(=O)n(CCc3ccc(OC)c(OC)c3)c(=O)c3ccccc32)c1`, for which the “activity change, negative = inhibition” value was inactive: 7.5%.
For the compound `CCOC(=O)c1c(C)[nH]c(C)c1S(=O)(=O)N1CCCC(C(=O)Nc2ccc(OC)c(Cl)c2)C1` (configuration not stated), the compound was called inactive.
As to `O=C(Cn1ncc2c3ccccc3n(Cc3ccccc3F)c2c1=O)NCCc1ccc(Cl)cc1`, the “activity change, negative = inhibition” value was inactive: 17.9%.
With `COc1cc(OC2CCN(C)CC2)ccc1Nc1ncc2c(n1)n(C1CCCC1)c(=O)n2C`, the “activity change, negative = inhibition” value was inactive: 18%.
`Cc1cccc(N2CCN(C(=O)C3CCN(S(=O)(=O)c4cccs4)CC3)CC2)c1C`: the result was inactive.
`COc1ccc(CN2COc3ccc4c(-c5ccccc5)cc(=O)oc4c3C2)cc1`: the “activity change, negative = inhibition” value was inactive: 7.63%.
On the same count and under the same terms, to `COc1ccc(OC)c(NC(=O)Cn2cnc3c(oc4ccccc43)c2=O)c1` belongs inactive: 1.68%; to `Cc1ccccc1Nc1nnc(-c2ccc(C)c(S(=O)(=O)N3CCOCC3)c2)c2ccccc12`, inactive: 15.1%; to `CN1CCN(c2ncc(-c3cc(Cl)cc(Cl)c3Cl)c(N)n2)CC1`, inactive: 3.27%.
For `CCc1ccc(NC(=O)c2cc3sc(Cl)cc3n2C)cc1`, the “activity change, negative = inhibition” value is inactive: 2.61%.
For the compound `O=C(Cn1cnc(S(=O)(=O)N2CCCC2)c1)Nc1ccc(OC(F)(F)F)cc1`, the call was inactive.
On to `CC1=C(C(=O)Nc2ccc(C)cc2C)C(c2ccc(Cl)cc2)n2nc(C(=O)OC(C)C)nc2N1` (configuration not stated), for which the “activity change, negative = inhibition” value is inactive: 4.62%.
The same measure, in the same setting: with `CC(C)CC(=O)NCc1nc2cccnc2n1Cc1ccccc1` the figure was inactive: 12.7%; with `CSc1cccc(-c2nnc(NC(=O)c3ccc4c(c3)OCCO4)o2)c1`, inactive: 1.3%; with `CCOc1ccc(NC(=O)C2CCN(S(=O)(=O)c3cc(-c4noc(C)n4)ccc3C)CC2)cc1`, inactive: 2.65%.
Regarding `CCOC(=O)c1cc(-c2ccccc2)n(CC(=O)Nc2ccc(OC)cc2OC)c1C`, the “activity change, negative = inhibition” value is inactive: 9.29%.
Consider `O=C(CCc1cn(Cc2ccccc2F)c2ccccc12)NCc1ccc(Cl)cc1`, for which the “activity change, negative = inhibition” value is inactive: 18.2%.
Same read-out and setting: to `CCOC(=O)c1nc(Nc2ccc(C(=O)OCC(C)C)cc2)c2ccccc2n1` belongs inactive: -0.828%; to `Cc1ccccc1CNC(=O)c1ccc(Cn2c(SCc3cccc(F)c3)nc3cccnc32)cc1`, inactive: 2.15%.
Turning to `COc1ccc(-c2ccc(NS(=O)(=O)c3cccc(Cl)c3)cc2)nn1`, the “activity change, negative = inhibition” value is inactive: -1.88%.
For the compound `COc1cccc(Cn2c(=O)n(-c3ccc(C)c(F)c3)c(=O)c3sc4ccccc4c32)c1`, the outcome was inactive.
In the case of `O=C(NCc1ccccc1Cl)C1CCC(CNS(=O)(=O)c2ccc(Cl)cc2)CC1` (configuration not stated), the “activity change, negative = inhibition” value is inactive: 8.7%.
Regarding `COc1cccc(NC(=O)N2CCC(n3c(C)nc4cccnc43)CC2)c1`, the “activity change, negative = inhibition” value is inactive: 2.96%.
In the case of `COc1ccc(N2CCN(C(=O)c3cc(S(=O)(=O)N4CCCCCC4)cn3C)CC2)cc1`, the compound was called inactive.
As to `Cc1ccc2oc(C(=O)N(Cc3cccc(F)c3)C3CCS(=O)(=O)C3)c(C)c2c1` (configuration not stated), the outcome was inactive.
Still for that read-out and setting: to `Cc1ccc(N(CC(C)C)S(=O)(=O)c2nnc(NC(=O)c3ccco3)s2)cc1` belongs “inactive”; to `O=C(COC(=O)C(Cc1c[nH]c2ccccc12)NC(=O)c1ccc(Br)cc1)c1ccc(Cl)cc1` (configuration not stated), “inactive”.
The same measure, in the same setting: with `COc1cccc(OC)c1C(=O)Nc1nnc(C)s1` the entry was “inactive”.
Regarding `COc1ccc(CNC(=O)C2CCN(Cc3nc(-c4ccc(OC)c(OC)c4)oc3C)CC2)cc1`, the “activity change, negative = inhibition” value was inactive: 1.93%.
The same measure, in the same setting: to `Cc1ccc(-c2cc(C(F)(F)F)n3nc(-c4ccc(Cl)cc4)cc3n2)cc1` belongs inactive: -3.5%.
For the compound `CCC(=O)N1CCc2cc(S(=O)(=O)CCC(=O)Nc3ccc(Cl)c(C(F)(F)F)c3)ccc21`, the compound was classed as inactive.
Consider `CCCCN(CC)CCNC(=O)c1cn(CCOC)c(=O)c2c1c1ccccc1n2C`, for which the “activity change, negative = inhibition” value was inactive: 5.81%.
On the same count and under the same terms, with `CCOc1ccc(C(=O)c2cn(Cc3ccccc3OC)c3cc4c(cc3c2=O)OCCO4)cc1` the figure was inactive: -4.44%; with `COc1ccccc1N1CCN(C(=O)c2sc3nc4n(c(=O)c3c2C)CCC4)CC1`, inactive: 7.1%; with `CCOC(=O)c1ccc(NC(=O)CSc2ccc(-c3sc(C)nc3C)nn2)cc1`, inactive: 0.355%.
With `COc1ccccc1CN1COc2ccc3c(C)cc(=O)oc3c2C1`, the outcome was inactive.
The same measure, in the same setting: with `Cc1ccc(NC(=O)Cn2c(=O)oc3ccccc32)cc1Cl` the entry was “inactive”.
Regarding `O=C(NC1CC(=O)N(c2cccc(F)c2)C1)c1ccc(S(=O)(=O)N2CCOCC2)cc1` (configuration not stated), the “activity change, negative = inhibition” value was inactive: 9.47%.
As for `CCOC(=O)c1ccc(NC(=O)c2cn(-c3ccccc3)nc2-c2ccc(Br)cc2)cc1`, the “activity change, negative = inhibition” value is inactive: -5.02%.
Take `COc1ccc(Cn2ccc3nc(C)c(C(=O)N4CCN(c5ccccc5)CC4)cc3c2=O)cc1`: the “activity change, negative = inhibition” value is inactive: 7.63%.
On the same count and under the same terms, to `O=C(c1cn(CCOc2ccccc2F)c2ccccc12)C1CCCCC1` belongs inactive: 0.0919%.
Take `COc1ccc(C(=O)c2oc3ccccc3c2NC(=O)c2ccc(F)cc2)cc1`: the call was inactive.
Regarding `Cc1ccc(Nc2sc(C(=O)c3ccccc3)c(N)c2C(=O)NC(C)C)cc1`, the “activity change, negative = inhibition” value is inactive: -12.8%.
Turning to `Cc1cccc(Cn2cc(C(=O)c3ccccc3)c(=O)c3cc4c(cc32)OCO4)c1`, the “activity change, negative = inhibition” value is inactive: 5.06%.
